Experimental data taken from article PMC4336329 (PLoS ONE, 2015).
Out of some 310,000 compounds screened, about 14,000 (4.5%) showed an effect of 50% or more. Effects have a minus sign here. The list shows a part of the results.

biological target: human ether-à-go-go-related gene (hERG) potassium channel (human, UniProt Q12809); assay: primary screen, population patch clamp on CHO cells stably expressing hERG
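Note: peak tail current of the secondary pulse compared with the same well before compound.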

human ether-à-go-go-related gene (hERG) potassium channel, sequence (Q12809 whole entry, looked up): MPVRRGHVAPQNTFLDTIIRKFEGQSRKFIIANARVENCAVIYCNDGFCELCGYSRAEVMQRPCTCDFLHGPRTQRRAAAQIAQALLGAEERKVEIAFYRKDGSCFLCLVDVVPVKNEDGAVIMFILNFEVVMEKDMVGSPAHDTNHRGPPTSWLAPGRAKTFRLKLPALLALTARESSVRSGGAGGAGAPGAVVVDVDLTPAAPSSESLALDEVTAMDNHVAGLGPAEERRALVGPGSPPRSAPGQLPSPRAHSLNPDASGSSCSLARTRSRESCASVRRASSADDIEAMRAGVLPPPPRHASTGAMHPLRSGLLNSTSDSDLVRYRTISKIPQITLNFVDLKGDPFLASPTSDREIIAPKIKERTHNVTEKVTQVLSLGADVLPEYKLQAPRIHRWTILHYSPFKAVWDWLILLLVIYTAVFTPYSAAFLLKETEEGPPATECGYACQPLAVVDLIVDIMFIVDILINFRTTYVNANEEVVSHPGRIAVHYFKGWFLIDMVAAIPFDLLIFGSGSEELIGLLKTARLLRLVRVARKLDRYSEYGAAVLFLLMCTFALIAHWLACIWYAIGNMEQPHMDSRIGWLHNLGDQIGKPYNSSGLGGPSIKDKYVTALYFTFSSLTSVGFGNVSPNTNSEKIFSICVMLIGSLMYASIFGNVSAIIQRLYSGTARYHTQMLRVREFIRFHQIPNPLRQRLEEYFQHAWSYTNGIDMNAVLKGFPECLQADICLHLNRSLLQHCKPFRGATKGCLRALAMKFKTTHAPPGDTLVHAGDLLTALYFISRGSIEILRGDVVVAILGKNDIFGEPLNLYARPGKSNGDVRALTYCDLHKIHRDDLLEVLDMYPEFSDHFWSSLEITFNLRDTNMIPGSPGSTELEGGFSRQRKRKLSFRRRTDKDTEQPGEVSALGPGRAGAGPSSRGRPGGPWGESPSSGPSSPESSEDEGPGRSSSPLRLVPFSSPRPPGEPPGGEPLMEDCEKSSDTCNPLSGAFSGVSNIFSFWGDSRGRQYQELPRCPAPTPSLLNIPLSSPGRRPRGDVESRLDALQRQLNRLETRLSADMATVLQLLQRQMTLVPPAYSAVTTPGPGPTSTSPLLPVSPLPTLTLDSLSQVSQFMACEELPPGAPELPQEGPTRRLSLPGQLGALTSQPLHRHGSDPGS

| SMILES | hERG current change (%, negative = inhibition) at 10uM [%] |
| --- | --- |
| COc1ccc(COC(=O)C2=C(C)NC(=O)NC2c2ccc(F)cc2)cc1 (stereo not drawn) | 1.67 |
| O=C(CCc1nc2ccccc2[nH]1)Nc1ccc(F)cc1 | -11 |
| CCc1ccc(N=C2NC(=O)/C(=C/c3cc(OC)c(OC)c(OC)c3)S2)cc1 | 16 |
| N/C(=N\OC(=O)Oc1ccccc1)c1ccc([N+](=O)[O-])cc1 | 18.1 |
| CC(=O)Nc1cccc(CP(=O)(c2ccccc2)c2ccccc2)c1 | 14.6 |
| Cc1cc(C(=O)Nc2ccc3nc(C)sc3c2)c2ccccc2n1 | 7.1 |
| CCC(=O)Oc1oc(-c2ccccc2)nc1C=Nc1ccc(C)cc1 | 11.4 |
| NC(=O)c1ccc(-c2noc(-c3cccc(Cl)c3)n2)cc1 | 19.4 |
| O=C(c1cccc(Cl)c1)N1CCCc2ccccc21 | -8.07 |
| CC1CCN(S(=O)(=O)c2ccc(S(=O)(=O)NCc3ccccc3)cc2)CC1 | 1.51 |
| CCC(C(=O)NC(C)(C)C)N(Cc1ccccc1Cl)C(=O)c1snc(C(N)=O)c1N (stereo not drawn) | 7.77 |
| CN(c1cccc(Cl)c1)S(=O)(=O)c1cccc(C(=O)NN2CCOCC2)c1 | -14.1 |
| CCCCc1ccc(/C(C)=N/Nc2cc(N3CCOCC3)nc(C)n2)cc1 | 4.93 |
| C/C(N)=C(/C#N)C(=O)COC(=O)CNS(=O)(=O)c1ccc(C)cc1 | 29.7 |
| COc1cc(CC(=O)Oc2ccc3c(c2)OCO3)cc(OC)c1OC | -2.51 |
| Cc1cc2cc3c(N)[nH]nc3nc2cc1C | 5 |
| O=C(NCN1C(=O)C2C3C=CC(C3)C2C1=O)Nc1cccnc1 (stereo not drawn) | 1.61 |
| CCCCNC(=O)c1cc2cc(OC)ccc2[nH]1 | 0.875 |
| CCn1c(=O)cc(C(F)(F)F)[nH]c1=S | 30.5 |
| CN1C(=O)c2ccc(NC(=O)c3ccc(N4CCCCC4)c([N+](=O)[O-])c3)cc2C1=O | -21.3 |
| CC(=O)Nc1ccc(C(=O)OCC(=O)NCc2ccccc2)cc1 | 11.9 |
| CSc1cccc(NC(=S)NC(=O)c2cccnc2)c1 | 11.3 |
| O=[N+]([O-])c1cc(F)c(N2CCOCC2)cc1N1CCCCC1 | -11.4 |

| SMILES | hERG current change (%, negative = inhibition) at 10uM [%] |
| --- | --- |
| CCCCC[n+]1ccn(-c2nc3ccccc3nc2[N-]S(=O)(=O)c2ccccc2)c1 | -39.6 |
| CCCC1NC(=S)NC(C)=C1C(C)=O (stereo not drawn) | 16.7 |
| COc1cccc(Nc2nc(-c3sc(C)nc3C)cs2)c1 | -9.73 |
| O=C(c1ccccc1)c1cc2c(cc1[N+](=O)[O-])OCCO2 | -8.32 |
| CC(=O)C1=C(O)C(=O)N(CCCN2CCOCC2)C1c1ccccc1[N+](=O)[O-] (stereo not drawn) | 14.6 |
| Cc1cc(C)c2c(=O)[nH]c(SCC(=O)Nc3ccccc3)nc2n1 | 4.85 |
| Cc1cc(C(=O)CSc2n[nH]c(N)n2)c(C)n1C1CC1 | 1.52 |
| COc1cc(/C=C(\NC(C)=O)C(=O)N2CCCCC2)ccc1OC(C)=O | 10.6 |
| COc1ccc(NC(=S)Nc2cc(C)ccn2)c(OC)c1 | 12.1 |
| CC(C)CNC(=O)c1coc(=O)c(Br)c1 | 23.6 |
| COc1ccc(N=NC2=C(O)CC(C)(C)CC2=O)c(OC)c1 | 13.3 |
| CCCCNS(=O)(=O)c1ccc2nc(-c3cccnc3)cc(C(=O)NC3CC3)c2c1 | -28 |
| COc1ccccc1NC(=O)CS(=O)(=O)c1cn(CC(=O)N2CCOCC2)c2ccccc12 | -3.84 |
| NC(=O)c1ccccc1NC(=S)NC(=O)c1ccc(Br)o1 | -10.1 |
| O=C(CN(C(=O)c1csnn1)c1ccc(F)c(Cl)c1)NCc1ccc2c(c1)OCO2 | -19.5 |
| CC(C)C[C@H](NC(=O)c1nc[nH]c1C(=O)NCc1ccc(CNC(=O)OC(C)(C)C)cc1)C(=O)OCc1ccccc1 | 2.91 |
| CC[n+]1c(/C=C/C=C/c2ccc(N(C)C)cc2)sc2ccccc21.[O-][Cl+3]([O-])([O-])[O-] | -73.4 |
| CCn1c(CSc2nccn2C)nc2cc(C(=O)O)ccc21 | 5.81 |
| Cc1ccc(OCC(O)CN2CCC(Cc3ccccc3)CC2)c(C)c1.Cl (stereo not drawn) | -75.2 |
| COc1ccc(C(=O)NNC(=O)CCn2nnc(-c3ccc(C)cc3)n2)cc1OC | 17 |
| CCOc1c(O)ccc(C2NC(=O)NC(C)=C2C(=O)OC)c1[N+](=O)[O-] (stereo not drawn) | -6.35 |
| O=C(Nc1ccc(F)cc1)c1cccnc1Oc1ccccc1 | -7.73 |
